# Results as given in PMC4336329 (PLoS ONE, 2015).
# About 14,000 (4.5%) of roughly 310,000 compounds showed an effect of 50% or more. The effect is printed as a negative number. Some of the results follow.
# Molecular target: human ether-à-go-go-related gene (hERG) potassium channel (human, UniProt Q12809)
# Experiment: primary screen, population patch clamp on CHO cells stably expressing hERG
# 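Also: peak tail current of the secondary pulse compared with the same well before compound.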
# Sequence of human ether-à-go-go-related gene (hERG) potassium channel (Q12809 whole entry, looked up): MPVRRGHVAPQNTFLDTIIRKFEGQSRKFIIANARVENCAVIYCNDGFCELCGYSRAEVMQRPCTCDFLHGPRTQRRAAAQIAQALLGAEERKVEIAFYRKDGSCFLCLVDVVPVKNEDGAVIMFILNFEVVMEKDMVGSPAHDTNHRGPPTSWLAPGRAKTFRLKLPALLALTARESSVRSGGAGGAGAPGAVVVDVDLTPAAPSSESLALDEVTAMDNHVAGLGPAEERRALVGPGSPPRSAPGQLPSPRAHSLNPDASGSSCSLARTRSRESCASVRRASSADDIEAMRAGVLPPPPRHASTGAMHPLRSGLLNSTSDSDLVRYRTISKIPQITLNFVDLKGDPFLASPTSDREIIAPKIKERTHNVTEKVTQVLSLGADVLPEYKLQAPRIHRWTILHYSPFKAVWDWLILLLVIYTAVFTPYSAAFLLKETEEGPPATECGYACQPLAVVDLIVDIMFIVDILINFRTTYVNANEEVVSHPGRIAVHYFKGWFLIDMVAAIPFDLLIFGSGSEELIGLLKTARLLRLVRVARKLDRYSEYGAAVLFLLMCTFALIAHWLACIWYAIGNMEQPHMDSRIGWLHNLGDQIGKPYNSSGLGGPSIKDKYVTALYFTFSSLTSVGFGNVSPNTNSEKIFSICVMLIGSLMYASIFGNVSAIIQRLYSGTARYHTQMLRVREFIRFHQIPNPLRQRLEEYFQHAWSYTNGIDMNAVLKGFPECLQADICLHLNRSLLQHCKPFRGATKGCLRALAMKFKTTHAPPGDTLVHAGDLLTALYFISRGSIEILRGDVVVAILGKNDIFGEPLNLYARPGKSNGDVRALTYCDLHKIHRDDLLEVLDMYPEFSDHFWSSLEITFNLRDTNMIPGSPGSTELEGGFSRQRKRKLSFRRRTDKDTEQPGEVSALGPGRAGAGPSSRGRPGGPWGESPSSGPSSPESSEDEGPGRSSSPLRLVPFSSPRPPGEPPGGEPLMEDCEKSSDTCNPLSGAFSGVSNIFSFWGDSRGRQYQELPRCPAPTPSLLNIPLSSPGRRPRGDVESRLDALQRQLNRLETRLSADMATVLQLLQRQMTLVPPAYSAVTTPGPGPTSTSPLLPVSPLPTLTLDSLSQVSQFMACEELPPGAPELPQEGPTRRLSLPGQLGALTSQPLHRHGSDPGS
row,Compound,"hERG current change (%, negative = inhibition) at 10uM [%]"
1,C=C(C)Cn1c(N2CCC(Cc3ccccc3)CC2)nc2c1c(=O)[nH]c(=O)n2C,-3.01
2,Cc1coc2cc3oc(=O)c(CCC(=O)NCC(=O)O)c(C)c3cc12,23.6
3,Cc1cccc(N(Cc2cc3ccccc3[nH]c2=O)S(C)(=O)=O)c1,-4.02
4,CCCC(=O)Oc1ccc(N(C(=O)CCC)S(=O)(=O)c2cccc([N+](=O)[O-])c2)cc1,3.87
5,CCn1c(=O)c(C(=O)NCc2ccc(OC)cc2)c(O)c2ccccc21,2.22
6,COc1ccc(N2CC(C(=O)OCC(=O)c3cccc(OC)c3)CC2=O)cc1 (stereo not shown),-28.1
7,CC1(C)CC(N2CCN(c3ccccc3)CC2)=CC(=[N+]2CCCC2)C1.[I-],-15.3
8,CCCCN1CC[C@H]2C=CC[C@@H](C(=O)Nc3nccs3)[C@H]2C1=O,7.92
9,O=C(Nc1ccccc1C(=O)Nc1ccccc1)c1ccccc1F,20.3
10,Cc1ccccc1NCC(=O)N/N=C/c1ccc([N+](=O)[O-])cc1,-11.7
11,Cc1ccc2c(CN3CCN(S(=O)(=O)/C=C/c4ccccc4)CC3)cc(=O)oc2c1,-72.4
12,CC(C)(C)NC(=O)Cn1cnc([N+](=O)[O-])n1,-11.4
13,CCNC(=O)/C(C#N)=C/c1c(N2CCN(c3ccccc3)CC2)nc2c(C)cccn2c1=O,-32.6
14,Cl.O=C(CNCc1cccs1)Nc1ccc(OC(F)(F)F)cc1,-19.5
15,COc1ccc(OC)c(NC(=O)c2cc3sccc3n2C)c1,-0.279
16,O=C1CN(S(=O)(=O)c2ccccc2C(F)(F)F)CCN1,29.5
17,CCN(C(=O)CCS(=O)(=O)c1cccc2nonc12)c1ccc(F)cc1,-18.6
18,O=C(NN=C1CCCC1)c1cccc(Br)c1,-2.76
19,O=C(Nc1ccc(N2CCCC2)cc1)c1ccc(Br)o1,-20.8
20,Cl.Nc1nc(Nc2ccccc2)nc2ccccc12,-18.5
21,Cc1nc2cc(NC(=O)N3CC4(C)CC3CC(C)(C)C4)ccc2n1C (stereo not shown),-23.5
22,CCOC(=O)C1CCN(C(=O)c2ccc3c(Cl)c4c(nc3c2)CCCC4)CC1,-28.4

row,Compound,"hERG current change (%, negative = inhibition) at 10uM [%]"
1,CC1(C)Cc2c(cnn2-c2ccccc2)C(=O)/C1=N\NC(=O)c1ccccc1N,4.99
2,COc1ccccc1-c1nc(-c2ccc(C)nc2OC)no1,9.92
3,CC(=O)Nc1ccc(-c2cc(C(=O)O)c3ccccc3n2)cc1,17.2
4,CC(=Nc1ccccc1O)c1sc2ccccc2c1O,6.81
5,C=CCNC(=S)NNC(=O)c1ccc([N+](=O)[O-])cc1,14.9
6,COc1ccc(/C(O)=C2/C(=O)C(=O)N(Cc3cccnc3)C2c2ccco2)cc1OC (stereo not shown),-5.78
7,CC(=O)Oc1ccccc1N(C(C)=O)S(=O)(=O)c1ccc(C)cc1,15
8,Cc1ccc2nc(-c3ccc(NC(=O)CCN4C(=O)c5ccccc5C4=O)cc3)sc2c1,-8.05
9,C=CCN1C(=O)C2C(C(=O)NC)C3C=CC2(O3)C1C(=O)NCc1ccc(OC)cc1 (stereo not shown),0.24
10,COn1c(=O)c(=O)n(O)c2ccccc21,3.06
11,Cc1c(NCc2cccnc2)cccc1C(=O)O,13.9
12,O=C(CC1(O)C(=O)Nc2ccccc21)c1ccc(-n2cccc2)cc1 (stereo not shown),2.85
13,CN(CCOc1ccc(Cl)cc1)Cc1cccc(S(=O)(=O)N(C)C)c1,-56.5
14,CSc1nc2c(c(=O)[nH]1)C(c1cccc(Cl)c1Cl)CC(=O)N2 (stereo not shown),16.7
15,COc1ccc(-c2cc(-c3n[nH]c(=S)n3-c3ccccc3OC)[nH]n2)cc1,18.6
16,C/C(=N/NC(=O)c1ccncc1)c1c[nH]c2ccccc12,15.4
17,C/C(CC(=O)Nc1ccc2c(c1)OCCO2)=N\NC(=O)c1ccccc1Cl,22.5
18,CCOc1ccc2nc(NC(=O)c3ccc(OCC4CCCO4)cc3)sc2c1 (stereo not shown),-2.99
19,CN1CCC[C@H]1c1cccnc1,17.5
20,O=C(NNC(=O)c1ccc(Cl)s1)c1csc(N2CCOCC2)n1,0.659
21,CCOc1ccccc1N1CCN(C(=O)c2ccncc2)CC1,-8.78
22,Cc1c(C(=O)NCCCN2CCCCC2)oc2ccc3c(c12)C(O)CC1(CCCCC1)O3 (stereo not shown),-32.2

row,Compound,"hERG current change (%, negative = inhibition) at 10uM [%]"
1,CCOC(=O)c1c(C)nn(-c2ccc(NC(=O)/C=C/C(=O)O)cc2)c1C,16.9
2,Cc1ccc(S(=O)(=O)c2nc(-c3ccc(F)cc3)oc2SCC(N)=O)cc1,-11
3,CCCCc1cc(=O)oc2cc(C)cc(OCC(=O)NCCN3CCOCC3)c12,-9.56
4,COc1ccccc1NC(=O)CCN1CCN(c2ccc(Cl)cc2)CC1,-33.9
5,CCN(CC(=O)Nc1c(F)cccc1F)C(=O)CCC(=O)c1ccc(F)cc1,-12.1
6,O=C(c1cccs1)N1CCC(c2nc3c(nnn3Cc3ccccc3)c(=O)[nH]2)CC1,-1.65
7,O=C(O)C(Cc1ccc(Cl)cc1)NS(=O)(=O)c1ccc(Cl)cc1 (stereo not shown),27.1
8,Cc1ccccc1CC(=O)N1CCOCC1,10.5
9,Cn1cccc1CN1CCN(C(=O)COc2ccccc2)CC1,7.81
10,COc1ccc(OC)c(/C=C/C(=O)N(C)CC(=O)Nc2ccc(C)cc2)c1,-18.3
11,NS(=O)(=O)c1ccc(N/N=C/c2cn(-c3ccccc3)nc2-c2cccs2)cc1,8.01
12,CC(C)N1C(=O)/C(=C/c2nc3ccccc3c(=O)n2-c2ccccc2)c2ccccc21,8.46
13,Cn1nc(C(=O)N2CCN(c3cccc(Cl)c3)CC2)c2c1-c1ccccc1S(=O)(=O)C2,-53.4
14,CCOc1ccc(S(=O)(=O)NCCC(=O)Nc2cccc(C(=O)OC)c2)cc1,-13.7
15,CNC(=S)N/N=C(\C)c1ccc(C)c(C)c1,-3.4
16,Cn1ccsc1=NC(=O)c1ccc([N+](=O)[O-])o1,13.1
17,Cc1cc(C)c(NC(=O)COc2ccccc2C(=O)Nc2ccc3c(c2)oc2ccccc23)c(C)c1,0.161
18,O=C(Nc1cccc(-n2cnnn2)c1)c1ccccc1Br,-14.4
19,C/C(=N\NC(=O)C(O)c1ccccc1)c1ccc(Cl)s1 (stereo not shown),-3.54
20,CCCC(=O)NCCCc1nc2ccccc2n1CC,-6.84
21,O=C(Nc1cnc2ccccc2c1)c1cccnc1,12.1
22,CC(=O)Nc1csc2ccccc12,3.39

row,Compound,"hERG current change (%, negative = inhibition) at 10uM [%]"
1,CC(=O)NCCNC(=O)c1ccc(NC2=NC3CS(=O)(=O)CC3S2)cc1 (stereo not shown),8.34
2,Cc1cc(C)c2nc(N3CCCC(C(=O)NCCN4CCOCC4)C3)sc2c1 (stereo not shown),-9.94
3,CCNC(=S)N1CCC(C(=O)c2ccc(Cl)cc2)CC1,-16.8
4,CCN1CCN(C(=O)C2CCN(S(=O)(=O)c3ccc(Br)cc3)CC2)CC1,-17.3
5,Cc1cc(C)c(S(=O)(=O)NCc2ccc3c(c2)OCO3)cc1C,-6.86
6,COc1ccc(CCNC(=O)C2CCCN(c3nc(C)cc(C)n3)C2)cc1 (stereo not shown),-3.89
7,COc1ccc(C(=O)NCCn2cc(SCC(N)=O)c3ccccc32)cc1,3.5
8,O=C(NCc1ccncc1)c1ccc(Cn2cc(C(F)(F)F)ccc2=O)cc1,17.4
9,O=C(Nc1ccc(N2CCN(C(=O)c3ccccc3F)CC2)cc1)c1cncc(Br)c1,2.88
10,O=C(COC(=O)c1cccc([N+](=O)[O-])c1)c1ccc2c(c1)OCO2,-12.7
11,Cc1c(Cc2ccccc2)c(=O)oc2c(C)c(OC(C)C(=O)NCC3CCC(C(=O)O)CC3)ccc12 (stereo not shown),15
12,COc1cc2c(cc1NC(=O)c1ccncc1)oc1ccccc12,-3.29
13,NNC(=O)Cn1c(-c2ccccn2)nc2ccccc21,14.9
14,CC(C)c1ccc(NC(=O)[C@H](Cc2c[nH]c3ccccc23)NC(=O)[C@@H]2Cc3ccccc3CN2)cc1,-5.18
15,COc1ccc(C)cc1NC(=O)CSc1ccc(Cl)cc1,11.1
16,CCOC(=O)CN1C(=N)N(c2nc(NC(C)C)nc(NC(C)C)n2)CC1=O,-73.8
17,CCC(C)N(C(=O)COc1ccc(Br)cc1C=O)C1CCS(=O)(=O)C1 (stereo not shown),-33.2
18,Cc1cccc(NC(=O)Cn2nnc3ccccc32)c1,17.8
19,COC(=O)c1ccc(S(=O)(=O)c2ccc(C(=O)OC)s2)s1,16.3
20,Cc1cc(C)cc(N(CCC#N)C(=O)CSc2n[nH]c(N)n2)c1,12.6
21,CCCCn1c(N)c(N(CC(C)C)C(=O)c2cccc(S(=O)(=O)N(C)c3ccccc3)c2)c(=O)[nH]c1=O,11.9
22,COC(=O)c1ccc(C2C(C#N)=C(N)Oc3cc(N)ccc32)cc1 (stereo not shown),-6.94
